Consider 167 variants from the RNAGym collection of RNA variant scans (doi:10.1093/nar/gkz1192).

B1: CPEB3 Ribozyme (parent)
chain: UAACAGGGGGCCACAGCAGAAGCGUUCACGUCGCAGCCCCUGUCAGAUUCUGGUGAAUCUGCGAAUUCUGCUGUAUAUCUC

Read counts are not given, so values of variants with three or more changes are uncertain.

This data set covers variants of B1. Description: self-cleavage, relative activity (ratio to wild type); higher = more cleavage; in vitro, sequencing. Summed up:
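Libraries of CPEB3 self-cleaving ribozyme mutants came from rounds of error-prone PCR and carried barcodes, which DNA sequencing matched to variants. In vitro transcription used T7 RNA polymerase at 37°C for 5 hours, with a further 15 min in DNase I before EDTA stopped the reaction; the ribozymes cleaved during both steps. The RNA was reverse transcribed with template switching and sequenced on Illumina. Relative activity is the cleaved/total read fraction of a variant divided by that of the unmutated ribozyme, averaged over three batches with at least 5 reads.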
Take A56U A57G U72C: the self-cleavage stood at 0.43.
With A57G U67C U80C, the self-cleavage was 0.34.
The same measure for A57G G63A U76C: 0.94.
The same measure for A57G U58C U69C: 0.22; for A57C U69C U78C: 0.17; for A57G A65C U69C U80C: 0.19.
As to A56U U60A A65U U67A U80A, the self-cleavage stood at 0.24.
To A56G C59U U67C U72A U78C belongs 0.23; to A57G U60A U67G A77G U80C, 0.31; to A56U A64U C68U, 0.35.
The same measure for A56U G63U A75G: 0.93; for A57G U67C U69C A77G: 0.22; for A56G U72C A75U U80G: 1.44.
To A56G A65G U69C A77G U78C belongs 0.31; to A57G U66C G70U, 0.17.
In the case of A56G C59A C68A A77G C79G, the self-cleavage is 0.27.
Consider A57G U69C U72C U78A, for which the self-cleavage amounted to 0.33.
To A56U C62G U69A belongs 0.32; to A57G U58C U78G, 0.43.
Take A56G U72G U80G: the self-cleavage was found to be 1.06.
On to A56G U69A U72A, for which the self-cleavage worked out at 0.22.
The same measure for A56U U58A U60A A65G: 0.15.
A57G U67C U74C: the self-cleavage turned out to be 0.33.
With A57C A64U U76C, the self-cleavage was 0.13.
The same measure for A57G U69C U72A U80C: 0.55; for A56G A65G U72A: 0.3.
To A57G C62G U67A C79U belongs 0.2; to A57G G63A G73C U74A, 1.31; to A56G U69C U78C, 0.48.
To A56U U58A C62U A64G belongs 0.07.
A57G U58C U60C: the self-cleavage came out at 0.17.
The same measure for A56U A64G U80C: 0.72.
The same measure for A56G U66A U78C: 0.17; for A56U U72A A77C: 0.36.
The same measure for A56U A65C U80A: 0.44.
With A56C U58C U76C, the self-cleavage was found to be 0.18.
To A57G A64U U66A U74A belongs 0.21; to A56G U72C U78C, 0.93; to A56G A57G U60A A64G U78C, 0.26.
To A57G U58C U67C belongs 0.4; to A57G U58A A75G, 0.39.
As to A56G C62U A64U, the self-cleavage was 0.23.
The same measure for A56G U74A A75G: 0.83; for A56G U69A U72A C79G: 0.41.
To A57G U60A C81U belongs 0.42.
To A57G A64U U72C belongs 0.54; to A57G U60A U72A, 0.25.
Consider A56U U66C U74C, for which the self-cleavage turned out to be 0.25.
To A57G A64U U67C A75U U80C belongs 0.18.
The same measure for A57G A77G U78C: 1; for A56G A64U U66C: 0.21; for A56U C62U C71U A77U U78C: 0.19.
To A56G U69C U72A belongs 0.31; to A56C U69C U72C, 0.24; to A57G U66C U69A, 0.23.
As to A57G U66C U74C, the self-cleavage stood at 0.26.
As for A56U U67A U69A, the self-cleavage was 0.22.
The same measure for A56G A57G A75G U78C: 0.45; for A56G U58G U72C: 0.12; for A56G U69A U74C: 0.96.
In the case of A56G U76G U78C, the self-cleavage stood at 0.58.
To A57G G61A U78C U80C belongs 0.22; to A57G U66A U69A, 0.26; to A56G U60C U72A U76A, 0.41.
To A56U U66C U80C belongs 0.24; to A56U A57G C62U A64G, 0.1; to A56G U60C U74C, 0.86.
To A56G U60A U76C belongs 0.48; to A56U U60A A64G U69C, 0.24; to A56G U60A G61C, 0.21.
Take A56G A57G A64U U69C: the self-cleavage was 0.16.
To A56G A64G U72C belongs 0.87.
As to A56G U66A U74C, the self-cleavage was 0.82.
With A56U U67C C68A, the self-cleavage came out at 0.29.
As for A56G A65C G70A, the self-cleavage is 0.19.
To A56G U66C G73U belongs 0.59; to A56U C71U U80A, 0.41; to A56U A57U U74C, 1.17.
As to A56U U60C U66A U76C, the self-cleavage turned out to be 0.22.
To A56G U72A A77C belongs 0.24; to A57C U67A A77G, 0.2; to A56G C59U A64U G73A A77G, 0.46.
The same measure for A56U G70U U72A U80C: 0.15.
The same measure for A57G U60A U80C: 0.28; for A57G U60C U69C: 0.19; for A56G A65G U67A: 0.17.
With A57G U60A A64G, the self-cleavage is 0.21.
The same measure for A56G U58C U60C A64U: 0.13; for A56G A57G A77G: 0.39; for A57G C59A A64U: 0.12.
For A56G A57G A65G, the self-cleavage amounted to 0.18.
To A57C U74A U78C belongs 0.85.
The same measure for A56G U60C A65G: 0.3.
With A56G U66G U74C A75G, the self-cleavage amounted to 0.56.
A56U A57G U60C A65G: the self-cleavage is 0.14.
On to A56U U74A U80C, for which the self-cleavage was determined as 0.49.
As to A57G A64G U69A U78A, the self-cleavage amounted to 0.36.
The same measure for A57G A75U U78C: 1.07; for A57G U69G U72A: 0.46.
The same measure for A56G A57G A65G U78C: 0.16.
To A56G U67A U78C belongs 0.31; to A57G U66C A75U, 0.3.
In the case of A56U G73A U78C, the self-cleavage was 1.12.
Turning to A56G U58G C79A, the self-cleavage worked out at 0.25.
As for A57C U67C U72A U78C, the self-cleavage came out at 0.1.
The same measure for A56C U58C U69C: 0.45; for A56G C59A G61A: 0.19; for A57G U60C U78C: 0.24.
For A56U U76G C79A, the self-cleavage amounted to 1.14.
With A56G A64U U74C, the self-cleavage is 0.48.
To A56G A64U U78C U80C belongs 0.16; to A57G U67A C71U A75G U80A, 0.11.
To A57G U69C U80A belongs 0.45; to A56G U66C U67C G70A U72A, 0.36; to A56G U58C U67A, 0.23.
Take A57G A65G C71G: the self-cleavage came to 0.23.
To A56G A57G A75G belongs 0.32; to A56U U72C U76A, 0.71.
With A57G A75G U80A, the self-cleavage was found to be 0.95.
Take A56G G70A U78C: the self-cleavage turned out to be 0.58.
For the variant A57G A64U U74A, the self-cleavage amounted to 0.35.
With A56U C62U U67A, the self-cleavage stood at 0.44.
On to A56G A57G U60G U69G, for which the self-cleavage amounted to 0.2.
In the case of A56G A64G U78C, the self-cleavage is 0.59.
To A56G C62U A64U U69C A75U belongs 0.18; to A57G U58C U69A U72C U78C, 0.23.
The same measure for A57C A64G U66C: 0.11; for A56G A64G U69C: 0.4; for A57G U72A U76C: 0.64.
To A56U U72C U74A A75G belongs 1.21; to A56G U58G C59A A75U, 0.05; to A57G A64G U66A U69A, 0.26.
Regarding A56G U58A A64G G73A A77G, the self-cleavage came to 0.27.
Regarding A57G G63A U80C, the self-cleavage is 0.86.
On to A56G U60C A75G, for which the self-cleavage is 0.4.
To A56G A57G U58C belongs 0.13; to A57G A65G C79A, 0.22; to A56U A65U U72C, 0.22.
To A57G A64G U69A U72C belongs 0.33; to A56U U69C U80C, 0.32.
To A56U C62U U76A belongs 0.27; to A56G U67C C71A, 0.18; to A56G A57G U76C, 0.4.
For the variant A56G A57G U72C, the self-cleavage was found to be 0.25.
To A57G U58G U69A belongs 0.14.
The same measure for A56U U69A U76C U80G: 0.1.
With A57G U69C A75U, the self-cleavage came to 0.45.
Consider A56G A65U U72G, for which the self-cleavage turned out to be 0.22.
In the case of A57G U58C U67C U69A, the self-cleavage came out at 0.4.
As for A56U U58C U78A, the self-cleavage turned out to be 0.22.
To A56U U60A U78C U80C belongs 0.28; to A56G U58C U80G, 0.58; to A56U C62A G73A U78C, 0.21.
Consider A56G G61A U78C, for which the self-cleavage is 0.39.
To A57G C59A G61C belongs 0.1; to A56G U60C G61A A77U, 0.4; to A57G A64G U76C, 1.07.
The same measure for A57C U66G U80A: 0.32; for A57G U67A C71U: 0.35; for A56G A57U U69C: 0.22.
In the case of A57G U60C G61A, the self-cleavage stood at 0.39.
The same measure for A56U A64C A65G: 0.12.
Regarding A56U A65G U66C A75U, the self-cleavage is 0.11.
To A56G U67A A75G belongs 0.24; to A56G U69C A77U, 0.62.
The same measure for A56G A57G G61C A65U: 0.12; for A56U U69G A75U: 0.5.
